In US20240124563A1 (NANJING ZAIMING PHARMACEUTICAL, published 2024):

B1: NB148-88 VHH-hFc (Fc fusion)
chain: QLQLVESGGGLVQPGGSHRLSCAVSVSTFTRYAMRWYRQAPGKEREWLTSIYSDGSSAYADSVKDRFTISLDNAKNMLYLQMNSLKPEDTAVYYCNANVDSKAYWGQGTQVTVAS[human IgG1 Fc with changes not written out]
B2: NB149-31 VHH-hFc (Fc fusion)
chain: EVQVVESGGGLVQPGGSLRLSCAASGITFSGNYGGWFRQAPGEQRELVASMSSALGTKYADPVKGRFTISTDTAKNTVDLQMNSLGPEDTAVYYCYARVRLSRGGWGSEYWGQGTQVTVSS[human IgG1 Fc with changes not written out]
B3: NB149-34 VHH-hFc (Fc fusion)
chain: QLQLVESGGGLVQPGGSLRLSCAASGSVNSITAMGWYRQGPGNERELVAVITDRGRASYADSVKGRFAISMDNDKHTVYLQMDSLKPEDTAVYYCNAHRRTWPHPGDYWGQGTQVTVSS[human IgG1 Fc with changes not written out]
B4: NB149-70 VHH-hFc (Fc fusion)
chain: QVQLVESGGGLVQPGGSLRLSCAASGSIFSGNAVAWYRQAPGKEREAVAVITRDGDTKYADSVKGRFTISRYNAKNIAYLQMNSLKPEDTAVYYCNTARGAAVDSWGQGTQVTVSS[human IgG1 Fc with changes not written out]
B5: NB149-81 VHH-hFc (Fc fusion)
chain: EVQLVESGGGLVQAGGALRLSCAASERTFSSSSMGWFRQAPGKEREFVAAINRIGGHIYYADSVKGRFTISKDNAKNTVYLQMSSLKPEDTAVYYCASSRIYSHSARDYDYWGQGTQVTVSS[human IgG1 Fc with changes not written out]
B6: NB149-95 VHH-hFc (Fc fusion)
chain: QVQLVESGGGLVQAGGSLRLSCTASESGFSANYMGWYRQEAPGKERELVATINRFGSTNYADSVKGRFTISRDNAKNTVYLQMNSLKSEDTGVYYCRIMRPGNWYWGQGTQVTVSS[human IgG1 Fc with changes not written out]
B7: NB149-97 VHH-hFc (Fc fusion)
chain: EVQVVESGGGLVQAGGGLRLSCAASERTFSSSSIGWFRQAPGKEREFVATMNRIGGHTFYADPVKGRFTISRDNAANTVYLQMSSLKPEDAAVYYCASSRIYSHSPRDYDYWSQGTQVTVSS[human IgG1 Fc with changes not written out]
B8: NB148-27 VHH-hFc (Fc fusion)
chain: EVQVVESGGGLVQAGASLRLSCASSGRTISPIAMAWFRQAPGKERELVAGLTWTGRTYYSDSVKGRFTISRDNAKNTVYLQMDSLKFEDTAVYFCAAGDNPDRRGSSWSSSSVYEYWGQGTQVTVSS[human IgG1 Fc with changes not written out]
B9: NB148-35 VHH-hFc (Fc fusion)
chain: EVQVVESGGGLVQPGGSLRLSCGVSGSILALNTMRWYRQTPGNQREWVASIYSSGGSTGYADSVKGRFIISRDSAKNMMSLQMNSLKSEDTAVYYCNVQTPLNVYWGQGTQVTVSS[human IgG1 Fc with changes not written out]
B10: NB148-46 VHH-hFc (Fc fusion)
chain: EVQLVESGGGLVQAGGSLRLSCAASGSTFSSYPMGWYRQAPGKQRELVAAISSGGSTNYADSVKGRFTISRDNAKNTVYLQMNSLKPEDTAVYYCNTRSPRVPNDSWGQGTQVTVSS[human IgG1 Fc with changes not written out]

target: T1, human MSLN-R3-his protein (human, UniProt Q13421 487-598); experiment: ELISA
T1 construct: MSLN-R3 = Met487-Ser598; also called hMSLN-R3-his; not shown: histidine tag
T1 sequence (Q13421 495-606): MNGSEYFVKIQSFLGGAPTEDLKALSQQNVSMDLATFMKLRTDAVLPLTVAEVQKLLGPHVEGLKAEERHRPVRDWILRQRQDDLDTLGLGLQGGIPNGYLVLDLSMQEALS

Binder | binding result
B1 | no binding (tested: starting concentration of 100 nM)
B2 | no binding (tested: starting concentration of 100 nM)
B3 | no binding (tested: starting concentration of 100 nM)
B4 | no binding (tested: starting concentration of 100 nM)
B5 | no binding (tested: starting concentration of 100 nM)
B6 | no binding (tested: starting concentration of 100 nM)
B7 | no binding (tested: starting concentration of 100 nM)
B8 | no binding (tested: starting concentration of 100 nM)
B9 | no binding (tested: starting concentration of 100 nM)
B10 | no binding (tested: starting concentration of 100 nM)
